Measurements reported in the antibiotic and cytotoxicity screens of Wong et al. (2023).
This is one part of the list.

Assays:
HSkMC = human skeletal muscle cells; assay: cytotoxicity call (relative viability < 0.9); settings: 10 µM
HepG2 = assay: cytotoxicity call (relative viability < 0.9); settings: 10 µM
S. aureus RN4220 = assay: growth inhibition call (relative growth <= 0.2); settings: 50 µM

Row | SMILES | cytotoxicity call (HSkMC) | cytotoxicity call (HepG2) | growth inhibition call (S. aureus RN4220)
1 | C[C@H]1CCCCO[C@H](CN(C)C(=O)Cc2ccccc2)[C@@H](C)CN([C@@H](C)CO)C(=O)c2cc(NS(=O)(=O)c3cccs3)ccc2O1 | inactive | inactive | inactive
2 | C[C@H]1CN([C@@H](C)CO)C(=O)Cc2cc(NC(=O)C3CCCCC3)ccc2O[C@@H]1CN(C)C(=O)Nc1cccc2ccccc12 | inactive | inactive | inactive
3 | Cc1ccc(S(=O)(=O)Nc2cccc3c2O[C@@H](CN(C)S(=O)(=O)c2ccc(F)cc2)[C@@H](C)CN([C@@H](C)CO)C3=O)cc1 | inactive | inactive | inactive
4 | N[C@H](C(=O)O)c1ccc(C(=O)O)c(C(=O)O)c1 | inactive | inactive | inactive
5 | CC(C)NCC(O)c1ccc2ccccc2c1.Cl (stereo not given) | inactive | inactive | inactive
6 | C[C@@H]1CCCCO[C@H](CN(C)C(=O)c2ccccc2)[C@@H](C)CN([C@@H](C)CO)C(=O)c2cc(NC(=O)Nc3ccccc3)ccc2O1 | inactive | inactive | inactive
7 | C[C@@H]1CCCCO[C@@H](CN(C)C(=O)Cc2ccccc2)[C@H](C)CN([C@H](C)CO)C(=O)c2cc(NC(=O)C3CCCCC3)ccc2O1 | inactive | inactive | inactive
8 | C[C@H](CO)N1C[C@H](C)[C@@H](CN(C)S(=O)(=O)c2cccs2)OCCCC[C@H](C)Oc2ccc(NC(=O)Nc3ccccc3)cc2C1=O | inactive | inactive | inactive
9 | C[C@H]1CCCCO[C@H](CN(C)Cc2ccc(C(F)(F)F)cc2)[C@@H](C)CN([C@@H](C)CO)C(=O)c2cc(NC(=O)Nc3ccc4c(c3)OCO4)ccc2O1 | inactive | active | inactive
10 | C[C@@H]1CCCCO[C@H](CN(C)Cc2ccncc2)[C@@H](C)CN([C@@H](C)CO)C(=O)c2cc(NC(=O)CCC(F)(F)F)ccc2O1 | inactive | inactive | inactive
11 | C[C@@H]1CN([C@H](C)CO)C(=O)Cc2cc(NC(=O)Nc3cccc4ccccc34)ccc2O[C@H]1CN(C)Cc1ccc(C(=O)O)cc1 | inactive | inactive | inactive
12 | COc1ccc(S(=O)(=O)N(C)C[C@@H]2Oc3c(NC(=O)C4CC4)cccc3C(=O)N([C@H](C)CO)C[C@@H]2C)cc1 | inactive | inactive | inactive
13 | O=C(C[C@H]1C=C[C@@H](NC(=O)CN2CCOCC2)[C@@H](CO)O1)NC1CCCCC1 | inactive | inactive | inactive
14 | C[C@@H]1CCCCO[C@@H](CN(C)Cc2ccc(C(=O)Nc3ccccc3N)cc2)[C@@H](C)CN([C@H](C)CO)C(=O)c2cc(NS(=O)(=O)c3ccc(Cl)cc3)ccc2O1 | inactive | inactive | inactive
15 | COC(=O)c1c(CC[C@@H](CO)NC(=O)N[C@H](Cn2cc(-c3cncn3C)nn2)C(C)C)oc(C(C)=O)c1C(=O)OC | inactive | inactive | inactive
16 | O=P(O)(O)C(O)(Cn1ccnc1)P(=O)(O)O | inactive | inactive | inactive
17 | O=C(C[C@@H]1CC[C@@H]2[C@H](COC[C@H](O)CN2S(=O)(=O)c2cccc(F)c2)O1)NCc1ccncn1 | inactive | inactive | inactive
18 | C[C@@H]1CN([C@H](C)CO)S(=O)(=O)c2ccc(-c3ccc(C(=O)N(C)C)cc3)cc2O[C@H]1CN(C)C(=O)C1CC1 | inactive | inactive | inactive
19 | C[C@@H]1CN([C@@H](C)CO)C(=O)c2cc(NC(=O)Nc3ccc(C(F)(F)F)cc3)ccc2O[C@H]1CN(C)C(=O)Nc1ccc(F)cc1 | inactive | inactive | inactive
20 | C[C@@H]1CCCCO[C@@H](CN(C)Cc2ccncc2)[C@H](C)CN([C@@H](C)CO)C(=O)c2cc(NC(=O)Nc3ccc(C(F)(F)F)cc3)ccc2O1 | inactive | inactive | inactive
21 | CC(Cn1cnc2c(N)ncnc21)OCP(=O)(O)O (stereo not given) | inactive | active | inactive
22 | Cc1ccc(S(=O)(=O)Nc2ccc3c(c2)C(=O)N([C@H](C)CO)C[C@@H](C)[C@@H](CN(C)S(C)(=O)=O)O3)cc1 | inactive | inactive | inactive
23 | CCCN1C[C@@H](C)[C@@H](OC)CN(C)C(=O)c2ccc(NS(=O)(=O)c3cn(C)cn3)cc2OC[C@@H]1C | inactive | inactive | inactive
24 | CCCC#Cc1ccc2c(c1)O[C@@H](CN(C)C(=O)c1cnccn1)[C@@H](C)CN([C@@H](C)CO)S2(=O)=O | inactive | inactive | inactive
25 | CC(C)NC(=O)N(C)C[C@@H]1Oc2cc(C#Cc3cccc(F)c3)ccc2S(=O)(=O)N([C@H](C)CO)C[C@H]1C | inactive | inactive | inactive
